Biological target: T1, human CD47 (cluster of differentiation 47) (human, UniProt Q08722)
T1 construct: whole, on cells; CD47 as carried by Raji, SK-OV-3 (SKOV3) and HT-1080 cells and by human primary platelets and T cells; the cell is named under assay; also called IAP; integrin-associated protein
Assay: FACS on Raji cells, pH 7.3 and pH 6.0

B1: variant SIRPαV1 IgV-IgG1 Fc fusion protein with the mutation of K53H (Fc fusion)
chain: EEELQVIQPDKSVLVAAGETATLRCTATSLIPVGPIQWFRGAGPGRELIYNQHEGHFPRVTTVSDLTKRNNMDFSIRIGNITPADAGTYYCVKFRKGSPDDVEFKSGAGTELSVRAKPS[human IgG1 Fc not printed]
  binding result: binds
